By IC50 is commonly meant the point on the concentration scale where inhibition reaches its midpoint.

The source holds more than one record for some entries. The list is limited to them. An entry can have further records. Results that share an entry are repeats across runs, samples, wells, individuals or studies.

Results on one molecule are retold here after PubChem BioAssay AID2060341 (Molecular Pharmacology Branch, DTP, NCI, 2025).

The test concerns 327498-153-R-J2-PDC multicell spheroid viability. Description: Anticancer human tumor 327498-153-R-J2-PDC patient-derived uterine carcinosarcoma cell line growth inhibition [IpAb]. The conditions noted are these: compound alone; run of 05/18/2021. An excerpt:
Combinatorial screen of targeted agents with ipatasertib and abemaciclib in multi-cell type tumor spheroids
A high-throughput screen of multi-cell type tumor spheroids was designed to identify active combinations of targeted small molecules and ipatasertib or abemaciclib. Complex spheroids include a stromal component modeled by human endothelial cells (HUVEC) and fibroblasts modeled by human mesenchymal stem cells (MSCs). The concentration ranges selected for each drug and investigational agent were based upon clinically achievable concentrations if the clinical Cmax of the agent was known.
Compounds. […] If the clinical Cmax for an agent had not been determined, the highest concentration tested was 10 microM.
NCI60 Cell Culture. […] The optimal seeding densities for each of the cell lines at each time point assessed were determined prior to performing the concentration response studies. […]
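Also: spheroids exposed to agents for 7 days.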

Regarding `CCN1CCN(Cc2ccc(Nc3ncc(F)c(-c4cc(F)c5nc(C)n(C(C)C)c5c4)n3)nc2)CC1`, the IC50 is 855 nM, 746 nM, 806 nM, > 1 µM.
